Measured values reported in PubChem BioAssay AID1508642 (National Center for Advancing Translational Sciences (NCATS), 2021).
Screen size: about 43,000 compounds; about 200 (0.47%) were called active. About 12% were inconclusive and are not listed. Calls come from the whole dose curve; as a rule, active = well fitted cell-killing curve with a large enough effect; inconclusive = small, poorly fitted or top-dose-only effect, or effect the other way; inactive = flat fitted curve, though single readings scatter. The list shows a part of the results.

Assay: Cell viability qHTS assay in S16 Pmp22-F2sN cells; note: nearly all actives have a fitted effect of over 65% in size
Details: S16 Pmp22-F2sN Schwann cells (luciferase reporters placed in the Pmp22 gene) viability, CellTiter-Glo, 24 h; series mostly up to 57.5 µM; activity change, negative = cytotoxicity: at the top concentration
How it was run: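 Luminescence from CellTiter-Glo, read by CCD camera after a 15 min room-temperature incubation, served as the viability signal. Reporter Schwann cells (S16 Pmp22-F2sN) had been treated with pin-transferred compounds for 24 h at 37C.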
% is set by controls: 0 for no effect and ±100 for the full control effect.

Compound	activity change, negative = cytotoxicity
Cc1cc(C)cc(-n2c(C)nc3cc(C(=O)NCc4ccccc4Cl)ccc32)c1	inactive: -17%
CCN(CC)Cc1c(NC(=O)c2ccc(OC)cc2)sc2c1CCCC2	inactive: 4.32%
COc1ccc(CCNC(=O)Cn2c(=O)c3cccn3c3ccc(F)cc32)c(OC)c1	inactive: 8.26%
CC(=O)Nc1ccc(Nc2nc3c(S(=O)(=O)c4cccc(Cl)c4)nnn3c3ccsc23)cc1	inactive: 4.26%
Cc1ccc2oc(=O)c3cc(C(=O)Nc4ccccc4C(N)=O)sc3c2c1	inactive: 4.27%
Cc1onc(-c2c(F)cccc2Cl)c1C(=O)Nc1ccc(OC(C)C)cc1	inactive: -14.3%
CCc1cccc(C)c1NC(=O)C1CCN(c2nn3c(=O)cc(C)nc3s2)CC1	inactive: 12.3%
CCOc1ccc(Nc2cc(C)nc3nc(Cc4ccc(Cl)cc4)nn23)cc1	inactive: 11.8%
Cc1ccc(-n2nc3c(N4CCC(C(=O)NC(C)c5ccccc5)CC4)nnc(C)c3c2C)cc1 (configuration not stated)	inactive: -10.3%
COc1ccccc1N1CCN(C(=O)c2c(C)oc3ncn(CC(C)C)c(=O)c23)CC1	inactive: -0.405%
O=C(Cn1ccc2ccccc2c1=O)NCCC(=O)Nc1ccc(F)cc1F	inactive: -3.18%
COc1ccc(CCNC(=O)c2cc3c(s2)-c2ccccc2OC3)cc1OC	inactive: 8.78%
Cc1cccc(NC(=O)Nc2ccc(Br)cc2)n1	inactive: 1.85%
Fc1ccc(N2CCN(c3ncnc4c3nc3n4CCCCC3)CC2)cc1	inactive: 0.814%
COc1ccc(S(=O)(=O)c2c(O)c3ccc(C(=O)NCc4ccccc4)cc3[nH]c2=O)cc1	inactive: 1.96%
CCOCCCn1c(=N)c(C(=O)NCc2cccnc2)cc2c(=O)n3cc(C)ccc3nc21	inactive: 24.7%
CC(=O)Nc1ccccc1-c1nc2ccccc2n(CC(=O)c2ccc(Br)cc2)c1=O	inactive: 14.4%
CCOC(=O)c1cccc(NC(=O)c2cc(S(=O)(=O)N3CCCC(C)C3)cn2C)c1 (configuration not stated)	inactive: 18.7%
CC1=C(C(N)=O)C(c2ccc(C)cc2)n2nc(SCc3ccccc3F)nc2N1 (configuration not stated)	inactive: 12.3%
COC(=O)CNC(c1ccccc1)c1cc(Br)ccc1NC(=O)c1ccccc1 (configuration not stated)	inactive: 4.93%
COc1cccc(-n2cc(C(=O)Nc3cc(OC)c(OC)c(OC)c3)c3ccccc3c2=O)c1	inactive: -9.44%
COc1cccc(CNC(=O)CSc2nnc(C)c3c(C)n(-c4ccccc4)nc23)c1OC	inactive: -15.7%
CCOC(=O)C1CCCN(C(=O)Cn2ncc3c(C)n(Cc4ccccc4F)c(C)c3c2=O)C1 (configuration not stated)	inactive: -4.33%
Cc1ccc(C(=O)CSc2ncc3c(n2)-c2ccccc2N(Cc2ccc(Cl)cc2)S3(=O)=O)cc1	inactive: 0.327%

Compound	activity change, negative = cytotoxicity
CCc1ccc2oc(-c3cccc(NC(=O)c4cc5ccccc5o4)c3)nc2c1	inactive: 1.44%
Cc1nc2c(C(=O)O)cnn2c(C)c1Cc1ccccc1	inactive: -7.97%
Cc1ccccc1C(=O)Nc1nc2nc(C)c(C)c(=O)n2[nH]1	inactive: 10.6%
CCCc1nn2c(=O)cc(COC(=O)c3ccc(NC(=O)CCc4ccccc4)cc3)nc2s1	inactive: 0.0159%
COc1cccc(NC(=O)c2sc3nc4n(c(=O)c3c2C)CCC4)c1	inactive: 6.41%
CCCCOc1ccc(CNC(=O)c2ccc(-c3nc(CN4CCc5ccccc54)c(C)o3)cc2)cc1	inactive: 16.8%
COc1ccc(NC(=O)Cn2c(=O)cc(C)c3c(C)nn(-c4cccc(Cl)c4C)c32)cc1OC	inactive: -0.142%
O=C(NCCc1csc(-c2ccc(F)cc2)n1)c1cccs1	inactive: -0.88%
O=C(NC1CC(=O)N(c2ccc3c(c2)OCCO3)C1)c1c(F)cccc1Cl (configuration not stated)	inactive: 8.35%
CCOC(=O)c1cc(-c2ccccc2)n(CC(=O)NC2CCC(C)CC2)c1C (configuration not stated)	inactive: 0.952%
COc1ccc(-c2noc(CSc3nnc(Cc4ccccc4)n3-c3ccccc3)n2)cc1OC	inactive: -23.4%
CCOC(=O)c1cnc2c(ccc3ccccc32)c1Nc1ccccc1OC	inactive: 2.66%
Cc1ccc(-c2nn(-c3ccc(F)cc3F)c3c2cnc2c(F)cccc23)cc1	inactive: 13%
Cc1ccc(NC(=O)CSc2nc3ccccc3c3nc(CCc4c(C)n[nH]c4C)nn23)c(C)c1	inactive: 6.3%
Cc1ccc2c(c1)c(=O)c(C(=O)c1ccc3c(c1)OCO3)cn2Cc1cccc(F)c1	inactive: 5.09%
COCCNc1oc(-c2ccc(COc3ccc(OC)cc3)o2)nc1C#N	inactive: -14.8%
COc1cc(OC)c(NC(=O)C(NS(=O)(=O)c2cccc3nsnc23)c2ccccc2)cc1Cl (configuration not stated)	inactive: 0.86%
Cc1ccc(CN2COc3cc(C)c4c(oc(=O)c5ccccc54)c3C2)cc1	inactive: 17.5%
CCOc1cc(C2NC(=O)c3c(sc4c3CCN(C)C4)N2)ccc1OC(=O)c1ccccc1Cl (configuration not stated)	inactive: 4.57%
COc1ccc(-c2[nH]c(-c3ccccc3)nc2SCC(=O)Nc2ccc3c(c2)OCCO3)cc1	inactive: -4.13%
Cc1ccc2[nH]c(C(=O)Nc3ccccc3)cc2c1	inactive: 5.64%
Cc1ccnc(NC(=O)c2c(C)oc3ncn(CC(C)C)c(=O)c23)c1	inactive: -8.65%
Cc1ccc(CNC(=O)Nc2cn(CC(C)C)c(=O)c3ccccc23)cc1	inactive: -3.19%
